{"source": "ChEMBL document CHEMBL4888484", "about": "“Replenishing the malaria drug discovery pipeline: Screening and hit evaluation of the MMV Hit Generation Library 1 (HGL1) against asexual blood stage Plasmodium falciparum ,using a nano luciferase reporter read-out” (2022)", "note": "Among all 150,000 compounds or so, about 540 (0.36%) showed an effect of 50% or more. The list shows a part of the results."}
{"test_system": "Plasmodium falciparum", "experiment": "Primary screen in NF54 nanoGlo assay, in single point, at 2uM, 72h; a lower Z score goes with more inhibition", "type": "functional, Erythrocyte", "conditions": "timepoint 72 hour", "units": {"% Inhibition": "%"}}
{"molecule": "CCn1ccc(C(=O)NCc2cc3n(n2)CCN(C2CCCCC2)C3)cc1=O", "% Inhibition": 0, "Z score": 0.08}
{"molecule": "CCCS(=O)(=O)N1CCC[C@@H]1Cc1noc(-c2cnccn2)n1", "% Inhibition": -6, "Z score": 0.9}
{"molecule": "Cc1nc[nH]c1CN1CCC2(CC1)C[C@H](c1ccccc1)C(=O)N2C", "% Inhibition": -1, "Z score": 0.27}
{"molecule": "CN(C)C(=O)NCCNC(=O)c1ccc(Cl)s1", "% Inhibition": -5, "Z score": 0.59}
{"molecule": "CCn1ccc(C(=O)N2CCc3cc4ccc3[C@@H]2c2cccc(c2)OCCCNC(=O)c2cc(ccc2O)O4)cc1=O", "% Inhibition": 7, "Z score": -1.26}
{"molecule": "C[C@@]1(c2ccc(Cl)s2)NC(=O)N(Cc2cccc(F)c2F)C1=O", "% Inhibition": -10, "Z score": 0.87}
{"molecule": "Cc1ccc(Cl)cc1NC(=O)C/C(N)=N/O", "% Inhibition": -8, "Z score": 1.03}
{"molecule": "O=C(O)c1cc(NS(=O)(=O)c2ccc(Cl)s2)ccc1N1CCC(N2CCCCC2)CC1", "% Inhibition": -7, "Z score": 0.7}
{"molecule": "CCCS(=O)(=O)NC(=O)c1cccc(F)c1F", "% Inhibition": 0, "Z score": -0.05}
{"molecule": "CCn1cc(NS(=O)(=O)c2cc(C(=O)O)cc3c2CCCC3)cn1", "% Inhibition": 6, "Z score": -1.15}
{"molecule": "O=C(CCn1ccnn1)N1CCc2cc(Br)cc(F)c21", "% Inhibition": -3, "Z score": 0.37}
{"molecule": "COc1cc(N(CC(C)C)C(=O)c2ccc(C#N)cn2)ccn1", "% Inhibition": 1, "Z score": -0.16}
{"molecule": "COc1ccc(-c2cnc3ncnn3c2N2CCN(Cc3ccc(C(C)(C)C)cc3)CC2)cc1", "% Inhibition": -4, "Z score": 0.41}
{"molecule": "CC(C)n1cccc1C(=O)Nc1ccccc1OC[C@H]1CCCO1", "% Inhibition": -7, "Z score": 1.32}
{"molecule": "O=C(NCc1ccccn1)c1nc(Cn2cc(Cl)cn2)no1", "% Inhibition": 3, "Z score": -0.35}
{"molecule": "O=C(c1cc(Cl)c[nH]c1=O)N1CCC(n2cc(C3CC3)nn2)CC1", "% Inhibition": 3, "Z score": -0.55}
{"molecule": "O=c1c2ccccc2c(CNS(=O)(=O)c2cccnc2)nn1C1CCCC1", "% Inhibition": -12, "Z score": 2.31}
{"molecule": "CCN(Cc1cccc(OC)c1)c1cc([C@H]2CCOC2)nc(N)n1", "% Inhibition": -1, "Z score": 0.24}
{"molecule": "Cc1cc(CNC(=O)C[C@H](C)NC(=O)OC(C)(C)C)c(C)o1", "% Inhibition": 1, "Z score": -0.09}
{"molecule": "Cc1csc(CN(Cc2ccno2)C[C@H]2CCCO2)n1", "% Inhibition": -12, "Z score": 1.06}
{"molecule": "CC[C@H](O)Cn1nc(C2CC2)nc1Cc1ccccc1OC", "% Inhibition": -14, "Z score": 2.34}
{"molecule": "O=C(Cn1nc(C(=O)N2CCc3ccccc32)ccc1=O)N1CCCCCC1", "% Inhibition": -12, "Z score": 2.02}
{"molecule": "Cn1cnc2cc(C(=O)NCCOCc3cccc(Cl)c3)cnc21", "% Inhibition": 2, "Z score": -0.23}
{"molecule": "Cn1ncc2c(NC3CN(c4ccc(C(F)(F)F)cc4)C3)ncnc21", "% Inhibition": -7, "Z score": 1.27}
{"molecule": "Cc1cccc(Cl)c1NC(=O)N1CCC[C@@H]1CN1CCOCC1", "% Inhibition": -13, "Z score": 1.16}
{"molecule": "Cc1ccnc(-c2ccccc2CN2CCOCC2)n1", "% Inhibition": -4, "Z score": 0.56}
{"molecule": "O=C(N[C@H]1CO[C@@H](CN2CCOCC2)[C@@H]1O)c1cccc(F)c1", "% Inhibition": 5, "Z score": -0.84}
{"molecule": "CCCCNC(=O)CN(C)c1cc(C2CC(O)C2)ncn1", "note": "(stereo not drawn)", "% Inhibition": -2, "Z score": 0.28}
{"molecule": "C#CC(=O)NCCNC(=O)c1cc(Br)c(C)cc1OC", "% Inhibition": -14, "Z score": 2.56}
{"molecule": "COc1ccc2[nH]c3c(c2c1)CCN(C(=O)Nc1cccc(Br)c1)[C@@H]3c1ccc(C)cc1", "% Inhibition": 14, "Z score": -1.67}
{"molecule": "O=S(=O)(c1ccc2c(c1)OCCO2)N1CC[C@H](Cc2ccc(CO)cc2)C1", "% Inhibition": -22, "Z score": 2.38}
{"molecule": "Cc1cc(C(=O)N2CCC[C@H]2c2cn[nH]c2)c(C)n1-c1nccs1", "% Inhibition": -2, "Z score": 0.35}
{"molecule": "CCOc1ccccc1CN1CCC(CNC(=O)c2cc(=O)[nH]c3ccc(S(=O)(=O)N4CCCCC4)cc23)CC1", "% Inhibition": -2, "Z score": 0.28}
{"molecule": "O=C(NCc1nccnc1-c1ccco1)NC1CCCC1", "% Inhibition": 16, "Z score": -2.07}
{"molecule": "Cc1ccc(N2S(=O)(=O)c3ccccc3S2(=O)=O)cc1", "% Inhibition": 4, "Z score": -0.44}
{"molecule": "O=C(c1cccnc1)N1CCC[C@H]1c1ccc2c(c1)OCCO2", "% Inhibition": -9, "Z score": 0.98}
{"molecule": "COc1cc(OC)cc(N(C)Cc2nnc(C)o2)c1", "% Inhibition": -4, "Z score": 0.56}
{"molecule": "Cc1nsc(N2CC=CC23CCCCC3)n1", "% Inhibition": -4, "Z score": 0.5}
{"molecule": "COCc1cc(=O)n(CC(=O)Nc2cc(C)ccc2OC)c(N2CCCC2)n1", "% Inhibition": -10, "Z score": 1.52}
{"molecule": "C[C@H]1CN(c2cc(NCC3CC3)ncn2)CCS1(=O)=O", "% Inhibition": -14, "Z score": 1.4}
{"molecule": "Cn1cc(-c2cc(CNC(=O)N3CCNC3=O)ccn2)cn1", "% Inhibition": -8, "Z score": 1.21}
{"molecule": "NC(=O)c1cnc(NC(=O)CCc2cccc(F)c2F)c(Cl)c1", "% Inhibition": -14, "Z score": 1.91}
{"molecule": "Clc1ccc(-c2nn(-c3ccccc3)cc2-c2nc(-c3ccccc3)c(-c3ccccc3)[nH]2)cc1", "% Inhibition": -15, "Z score": 2.91}
{"molecule": "O=C(Cc1ccc(Cl)cc1)Nc1nnc(CCCOc2ccccc2)s1", "% Inhibition": -8, "Z score": 1.63}
{"molecule": "C[C@@H](CN1CCCC1=O)NCc1sc2ccccc2c1Cl", "% Inhibition": -1, "Z score": 0.15}
{"molecule": "Cn1cnc2c(C(=O)NCCN3CCOCC3)nn(-c3ccccc3)c2c1=O", "% Inhibition": 5, "Z score": -0.49}
{"molecule": "c1cc(-c2ccc(-c3cn(CC4CCCCC4)nn3)o2)n[nH]1", "% Inhibition": -4, "Z score": 0.76}
{"molecule": "COCCNC(=O)N1CC(c2nc(C3CC3)no2)C1", "% Inhibition": -18, "Z score": 3.4}
{"molecule": "Cn1cc(-c2ccc(OCc3ccccc3)c(F)c2)c(C(=O)O)n1", "% Inhibition": -3, "Z score": 0.27}
{"molecule": "O=C(O)c1cccc(NCn2nnc3ccccc32)c1", "% Inhibition": -9, "Z score": 1.24}
{"molecule": "CCN(C[C@H](C)C#N)C(=O)CNc1cc(F)c(F)cc1F", "% Inhibition": -7, "Z score": 0.89}
{"molecule": "CCc1nc(NC(=O)[C@H]2CCCN(C(=O)c3ccoc3)C2)sc1C", "% Inhibition": -15, "Z score": 1.52}
{"molecule": "CCOC(=O)c1ccccc1NC(=O)Cn1c(=O)n(CC)c(=O)c2sc(N3CCCC3)nc21", "% Inhibition": -4, "Z score": 0.76}
{"molecule": "NC(=O)N1CCC(NC2(c3cccc(C(F)(F)F)c3)CCC2)CC1", "% Inhibition": 2, "Z score": -0.21}
